Variants at the floor of the assay are shown more often than the library holds them.
B1: TPR 5TU (parent)
chain: GGAUCUUCUCGAUCUAACAAAAAAGACAAAUCUGCCACAAAGCUUGAGAGCAUCUUCGGAUGCAGAGGCGGCAGCCUUCGGUGGCGCGAUAGCGCCAACGUUCUCAACUAUGACACGCAAAACGCGUGCUCCGUUGAAUGGAGUUUAUCAUG

Variants of: B1
Assay: polymerase ribozyme fitness, log enrichment relative to wild type (log ratio); higher = more active; in vitro selection for triplet polymerase activity
Summary of the method: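 A heterodimeric triplet polymerase ribozyme had each of its subunits mutagenized by PCR into a library, which was transcribed. One round of in vitro selection, done in triplicate, annealed each library with a biotinylated primer, its partner subunit and triplets, then incubated it frozen at −7 °C before gel excision of extended constructs, streptavidin-bead capture and RT-PCR. Fitness is the logarithm of genotype enrichment relative to wild-type enrichment, based on Illumina sequencing of inputs and outputs and inverse-variance-weighted replicate averages. A base-2 logarithm is used, and genotypes were kept only with ≥10 input reads and ≥1 read per output.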

Variant | polymerase ribozyme fitness (log ratio)
C72U C87U C105A | -3.79
G68A U139C | ≤ -4.2
G71A U104C | -3.42
G67A G84U C105U G133A A150C | ≤ -4.2
G68U A73U G94A A119U | ≤ -4.2
C75U A91G U104A U139A | ≤ -4.2
G68A C85U C93U C132U A138G | ≤ -4.2
G67A C72A A142U | ≤ -4.2
G68U G141C | ≤ -4.2
G70C G83C C105U C125U | ≤ -4.2
A66C C87A G141U A142G | ≤ -4.2
C69A G84A U104G C125U G126A A142C | ≤ -4.2
G67A C96A | -3.46
G68A G86A C87G | ≤ -4.2
G68A C87A | ≤ -4.2
G74A C85A G86A C93G C114U U139G | ≤ -4.2
G67C G86C C114U A122U G124A G143A U145A | ≤ -4.2
G67U G83U G117U A119U | ≤ -4.2
G71U G74U G83A C93G C99A A107U | ≤ -4.2
G67C C85U A119C U146G | ≤ -4.2
A73G A91C C95U A121C C125U | ≤ -4.2
G67A C96G U104G | ≤ -4.2
G74C C75A A106G | ≤ -4.2
C75U A91U C95A A107G C108A A119U | ≤ -4.2

Variant | polymerase ribozyme fitness (log ratio)
G67C C76U C96U C149U | ≤ -4.2
A66C C131A A137U | ≤ -4.2
C69U C85A A110G U134G U145C | ≤ -4.2
G71C U77G G86A | ≤ -4.2
G67A A73C G94C C114A | ≤ -4.2
C69U G126A | 0.958
A66U U127C | ≤ -4.2
A73U G86U | -4.19
C75G C87A C105U | ≤ -4.2
C69G C93U U101C C118U | ≤ -4.2
G71A A73G C85G U134G | ≤ -4.2
G71A G94A | -2.94
G68U C85G C149G | ≤ -4.2
G71U G84A | -2.59
C72U G86U | ≤ -4.2
A66G C123G | ≤ -4.2
A73U C93U G136A | -1.59
A73U A89C U90G A110U | ≤ -4.2
A66G A106G U139A | ≤ -4.2
G71U C108U | ≤ -4.2
C75U C93U C114G G117U C123A G126C | ≤ -4.2
G68C G80U C105U A107U C129G | ≤ -4.2
G68U C96G C118G U127C G133U G141A | ≤ -4.2
G70C G92U | -3.01

Variant | polymerase ribozyme fitness (log ratio)
G67U G83U U101G | ≤ -4.2
C72U A91U C96G | ≤ -4.2
G67C C75U G84A C132U G136U U151A | ≤ -4.2
G74A A89C G94U U109G G117U | ≤ -4.2
G67A U151C | ≤ -4.2
G65C G67C A98G G140C A147C C149G | ≤ -4.2
G68A C103G G140U | ≤ -4.2
C69U C85G G141A | -2.66
G74U C105A A107C G136U | ≤ -4.2
C75U G83A C105G G128U U134A A138U G141U | ≤ -4.2
A73C A91G C116U | ≤ -4.2
G71C A106U | ≤ -4.2
A66C G92U C132G U139G | ≤ -4.2
G70C A113C U144C A147C | ≤ -4.2
G70C G83A A107G A115U A122G | ≤ -4.2
A73G G84U | -1.29
A66C A91G | ≤ -4.2
A66C C75G G86U C123A | ≤ -4.2
G68A A138G | ≤ -4.2
C72U G74A A110G C116U U139G A150C | ≤ -4.2
G70U C75A C87G G94C G100U A150U | ≤ -4.2
G70C C93U | ≤ -4.2
G67A C85A U104G A138U | ≤ -4.2
G67C C87U G152U | ≤ -4.2

Variant | polymerase ribozyme fitness (log ratio)
G67A A91G U135G C149U | ≤ -4.2
A73U C85U G143U | ≤ -4.2
G70A C93A U111C | ≤ -4.2
C69U G86A U151G | ≤ -4.2
C69U C76U A97U U109G G112C C125A | ≤ -4.2
C75G U134G | -4
A73U G83U C85U G140A A142C | ≤ -4.2
G71A A97G A113U A121U A122U A137G | ≤ -4.2
G67C C79G U127C C129U | ≤ -4.2
G68C U78A G94A A122G C125G G140C | ≤ -4.2
C72U G92U U135A G143A | -3.54
C75G C76G G94C C95U U104G | ≤ -4.2
G74U G84C C96A C99U G100C C108G | ≤ -4.2
G71C C93U C95G C99G A115C | -3.95
G67A G86A G88C A106C G143A A150U | ≤ -4.2
A73C C87G G141C | ≤ -4.2
G74U G84U G133C U145A | ≤ -4.2
G65U A73G G141A | ≤ -4.2
G67C G86U C105G C132G U145G | ≤ -4.2
G71A C149G | ≤ -4.2
A66G G128A G133U | ≤ -4.2
C75A A89G C96A U146G | ≤ -4.2
A73G C87A A115U C116A G143U | ≤ -4.2
A66C C85G G141A U146C | ≤ -4.2

Variant | polymerase ribozyme fitness (log ratio)
A73G C87A | -4.18
A73G C87G | ≤ -4.2
G68U C103A C114G | ≤ -4.2
C69U C79G C95A | ≤ -4.2
A73G C93U A110U | ≤ -4.2
C69U G71U C87U A89C | -3.31
G70C G126U G152A | -3.99
A73C C87U C125U | ≤ -4.2
G67C U77A U90G C95U U144C | ≤ -4.2
C72U G88C C99U C105U C123A G140U | ≤ -4.2
G68A C85U | -3.48
A66U A73G C76U G88C G92U G133U U151C G152U | ≤ -4.2
C75A U78C C87U C93G G124U | ≤ -4.2
G74A U135A | ≤ -4.2
G67A U78A C87U A106U | ≤ -4.2
C72G U102G | ≤ -4.2
G70A C93U C96G U102C U111A | ≤ -4.2
G68A C93U | -4.04
A66C A97U A147G | ≤ -4.2
C75G G84U C131G U135A | ≤ -4.2
C75A C93U A97U | ≤ -4.2
G67A C85A G88C G100C | ≤ -4.2
C69G U78G A113C | ≤ -4.2
G71A C99U | ≤ -4.2

Variant | polymerase ribozyme fitness (log ratio)
A66C G92U G100U A115U A119C G133U | ≤ -4.2
G67C G70A G83C G84U | ≤ -4.2
A66U G83U G133A A138U U146A | ≤ -4.2
C69G G86C A121C | ≤ -4.2
A73U G80C C93G G124A G140A | ≤ -4.2
G74C C76G G84A C93G A107G | ≤ -4.2
C69A A91G | -3.81
C69A A91U | ≤ -4.2
C69A A73G | -2.98
G70C G81A G86C A121U | ≤ -4.2
G68U A73G U82A G92A U101C C116A A137C | ≤ -4.2
G74A C85G U102A U145A | ≤ -4.2
C75G C93U U102C C103G C118G | ≤ -4.2
A66G C85U U111G U146A | ≤ -4.2
C69A C72U | -3.05
G71C C93A | ≤ -4.2
G71A A91U U146G | ≤ -4.2
G65C G81C | ≤ -4.2
G67A G81A A91C A137C U148C | ≤ -4.2
A66G G88C | ≤ -4.2
A73U G83A C93U A138C U145C | ≤ -4.2
G67C A91U C93A C105U G128U G152U | ≤ -4.2
A73U A98G G126U U127A | ≤ -4.2
G74C U104A C105G A115G U146G | ≤ -4.2

Variant | polymerase ribozyme fitness (log ratio)
A73U C96U C108G G141A U146G | ≤ -4.2
G74A C85G C131A | ≤ -4.2
A73U G92U G141A U145A | -3.24
G70A C85G G92C C105U G143A | ≤ -4.2
A73U G83C C95A G117U U135G | ≤ -4.2
C72U G92A C116U U139G | -3.15
G68A G70U C99G | ≤ -4.2
A73U C96A U109A C116U | -3.64
C69A G83C U101G | ≤ -4.2
C69A C93U A106C A107C G143A | ≤ -4.2
G67C G68A G83A U90A G117A | ≤ -4.2
G65U U127A G141U U145G | ≤ -4.2
C69U C85G A97G | ≤ -4.2
G74U C99G | ≤ -4.2
A66U C69A | ≤ -4.2
G65C C87A U104G A138U | ≤ -4.2
G70A A73U C114A C118U A138C | ≤ -4.2
A66C G86U C93U C108U G128U | ≤ -4.2
C72G G136U G141A | ≤ -4.2
C75G A89U C93G U104G A147C | ≤ -4.2
A66C G92C C96G A120G | -4.14
G70C G88U A97C | ≤ -4.2
A73U G83C G143C | ≤ -4.2
